Here are results for 22 molecules from PMC12136788.

T1: UNK ZnF1-3 (human, UniProt Q9C0B0 31-174)
T1 sequence: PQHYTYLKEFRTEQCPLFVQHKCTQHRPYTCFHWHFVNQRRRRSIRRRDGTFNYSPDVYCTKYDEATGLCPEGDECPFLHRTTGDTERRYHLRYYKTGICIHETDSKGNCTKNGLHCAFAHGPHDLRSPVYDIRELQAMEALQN

B1: chr11:79222206:79222207:+_ENSMUSG00000020716_ENSMUST00000071325|mus_hu|FALSE|FALSE (ssRNA)
RNA: GGGAGUUCUACAGUCCGACGAUCUUUUGUAAAUUCAUCUGGAUAAUUUUCUACCCAGUUCCAAAAUGCCUUUUCCAGGCUAUUUAUAACUGCUAACUGCGCAACCUUCUUUAGGGCUUUAAAUUUAAAUGCUGUUUCCUUCAGCAACAGAGGAUUGAGCAUCA
B2: chr5:132216804:132216805:-_ENSG00000072364_ENST00000265343|hu_hu|FALSE|FALSE (ssRNA)
RNA: GGGAGUUCUACAGUCCGACGAUCAGAUAUCAACUUGGCAUCCUGGCGAAGCCAGUGCAGUCCCUGCCGGGUAUAACGAACUAGAUCUGUCAUGAUGCUUGCAUUAAAGAUGAGAGGGCCCAUUACUUUAUCCAGUUCAGCAAACAACAGAGGAUUGAGCAUCA
B3: chr11:116399779:116399780:-_ENSMUSG00000020802_ENSMUST00000082152|mus_hu|FALSE|FALSE (ssRNA)
RNA: GGGAGUUCUACAGUCCGACGAUCCGUCACCCGGAACCUAGCCUGGUCCCAACCUCUCUUAGAGAGCAAGUUCAACAGGCCUGAGGGCUAUAACGUGGUCGACAGGCCAUGUAUAGCCGGGAGUCAGUGACAGCAGCUACAACUCAACAGAGGAUUGAGCAUCA
B4: chr7:148047826:148047827:+_ENSMUSG00000025485_ENSMUST00000026558|mus_mus|motif|central (ssRNA)
RNA: GGGAGUUCUACAGUCCGACGAUCCCCCAUGGGUUGGAUGACUCUGUGCCUGGAGAGCUUGUCAAACAUGUUCACGGGCUUCAUGGCCUCAUGUUCCUUCUGCUCCUCUGUCAUGCCUUCCAUAGGAUUAGGCGGCUUCUCCUCCAACAGAGGAUUGAGCAUCA
B5: chr2:32339754:32339755:+_ENSG00000021574_ENST00000315285|hu_mus|FALSE|FALSE (ssRNA)
RNA: GGGAGUUCUACAGUCCGACGAUCACCGGAGAGCCCUGCGGAGCCACUUUUCAGGACAGUUUUUGAUCGAGGCAAUGAAUUACUAGCAUGUGUUAAGGGGUCUUUCCUCUUCGGAACUGCUCCACUUUCUGACUGGAGAUGUCCCAACAGAGGAUUGAGCAUCA
B6: 64331861_64335390_557_CDS_ENSG00000197329_ENST00000358912|human|control|control (ssRNA)
RNA: GGGAGUUCUACAGUCCGACGAUCAUGCACAGUGCUGGGCUUCACCCCAUUUGCCUUAGGUCUUUUAAACAAAGCAAACCUACUUUUCCUCCUUCCUCUAUCGCCAUUUGGGAGAGACCCAUUAUACCCUAAGACAAUGAGUUCCAACAGAGGAUUGAGCAUCA
B7: chr9:74905015:74905016:+_ENSMUSG00000007656_ENSMUST00000169492|mus_hu|FALSE|FALSE (ssRNA)
RNA: GGGAGUUCUACAGUCCGACGAUCUGUGUUUGAAAUAUGUGACCUUUCUUCUAACUUGUGGUCUUAAACUUCUGUUUUACAAAAUCCAAAAGGUAAAUACAGAAGAAAUCAAUACAAUAGAGAUUAUAUUAAAUAAGAGUAACACAACAGAGGAUUGAGCAUCA
B8: chr1:225611761:225611762:-_ENSG00000143815_ENST00000272163|hu_mus|hu_hu_hu_mus_True|48_108 (ssRNA)
RNA: GGGAGUUCUACAGUCCGACGAUCCCAGGCCAUCGACCUCUGACCACUUCACCCUCAACAAACUUCCUACUUGGCAUUUUCUAAAAUUAACCUGCGCGCGCUCCGGCGGGAACUCCAGCCACUCCAGGACAGUCACCAGCAGCCCAACAGAGGAUUGAGCAUCA
B9: chr2:216981417:216981418:+_ENSG00000079246_ENST00000392132|hu_hu|hu_hu_hu_mus_True|8_38 (ssRNA)
RNA: GGGAGUUCUACAGUCCGACGAUCCUGAUACUGGUCCUUGCCAGCAAGGGCAUUAUCAGUGCCAUCUGUGCCAUAGAGGACUAACGCAAUCUCAUCUUUGUUCUCAGAAAAUACCUGUCGUUGGACAAACAUGGUUAUCACUUUCAACAGAGGAUUGAGCAUCA
B10: chr7:54825262:54825263:-_ENSG00000132432_ENST00000352861|hu_hu|hu_hu_hu_mus_False|68_98 (ssRNA)
RNA: GGGAGUUCUACAGUCCGACGAUCCUGCCGGCUGGGCACAAACUGCAGCAUUACCUGAUCCAUGUUUUACCCAACCGGGAUUGAGAGCGUAGAGACACGUAGCUCAGGAGAGAACCGAGCCCAACGGAACCGGAAGCUGGCAACCAACAGAGGAUUGAGCAUCA
B11: chr3:58389919:58389920:+_ENSMUSG00000075700_ENSMUST00000107924|mus_mus|motif|central (ssRNA)
RNA: GGGAGUUCUACAGUCCGACGAUCGCUAGGAGCUUGCAUGCCGAAAAAAGCAAAAGGAUCUUUGCCAACAAUUAUUAAGCCGGUUAAUACUAGUUUGAAGACUGACAGGAAAGAUGCUAUGUGUCUAUAAAUUGGUUGAGGGAGCAACAGAGGAUUGAGCAUCA
B12: chr16:57283700:57283701:+_ENSG00000102931_ENST00000219204|hu_mus|FALSE|FALSE (ssRNA)
RNA: GGGAGUUCUACAGUCCGACGAUCGGUUGUGAAGGCCGCCAUGUUGAAGCCUGGGAUACGCUCCAGCAACUGCUCUUCAAUGUACUUCUCUACCAGGGAGAUAUAUUCAUUAAAAAUGGGUGUAUAGGUGAGUUUAUUCUCUUCCAACAGAGGAUUGAGCAUCA
B13: chr2:48026839:48026840:+_ENSG00000116062_ENST00000540021|hu_hu|hu_hu_hu_mus_False|38_48 (ssRNA)
RNA: GGGAGUUCUACAGUCCGACGAUCAUAGUGAGCCACUAGCGUCCUAAAUCUGGAACAGUGGCGGUCAUCCGAAAACUGGCCGAUGAAAAACUUUCCCAGUGAAGUAUCCACAAAGCAAACACCAUACACACGAGUGUGACCAGACAACAGAGGAUUGAGCAUCA
B14: chr1:90180218:90180219:+_ENSG00000171488_ENST00000370454|hu_mus|FALSE|FALSE (ssRNA)
RNA: GGGAGUUCUACAGUCCGACGAUCACAAGUGAUGGAAAAAUACUGUAAACUUUGCAGAACUCCGAUUUCGGGCGGGAUGAAGCGGAUGUCGUUAUAGGACAAGUCCAGGUAUCUGAUUUUGUUGCACAGGAAGAGGUGGGAGGGCAACAGAGGAUUGAGCAUCA
B15: chr11:16760304:16760305:+_ENSG00000110696_ENST00000422258|hu_mus|FALSE|FALSE (ssRNA)
RNA: GGGAGUUCUACAGUCCGACGAUCACCCCGUGCGGGUGAGACUCCCGGGCAGCACUCAUCGUAGCUGGGAUCCUGACGGGGAUAUGCCAAACACACUCGCAGUUCUCCUCAAACGCGACACCAGCAGCCCUCACCCAGCCGCCGCAACAGAGGAUUGAGCAUCA
B16: chr6:40197388:40197389:+_ENSMUSG00000057716_ENSMUST00000061740|mus_mus|mus_mus_mus_hu_False|88_108 (ssRNA)
RNA: GGGAGUUCUACAGUCCGACGAUCGAGUUGUCAGUUUGGAUUUAUUCUCAGUUUGGGUGGGUGCUAGCCACUAAGACUGUUAUUUUGGGAUUCAUGGCCUUGAAUAUCAAGAGGGAAAGGAAGAGGAUGGAAAGAGUCAAGAGUCAACAGAGGAUUGAGCAUCA
B17: 22032003_22032123_2356_3pUTR_ENSG00000154059_ENST00000284202|human|control|control (ssRNA)
RNA: GGGAGUUCUACAGUCCGACGAUCGAAAAAGACCUGUUUGUCCAAUUCUCUGUGCUUUCCAUGCUCUAGCACCAUCCCAAAGUUGCCUCCUAACUUCUGUUCCCUCCCUGGGAAGGGAAGUCCAGGCAAAUCUGUGAUCAGUUACAACAGAGGAUUGAGCAUCA
B18: chr3:176740097:176740098:-_ENSG00000177565_ENST00000430069|hu_mus|hu_hu_hu_mus_True|8_18 (ssRNA)
RNA: GGGAGUUCUACAGUCCGACGAUCUGUUUUGUAUACCACAAAAGGAGGCACUUUCAGUAUCUGCAAAAGGUGUUUAGUCCUAAAACAUACUCACCUAGAGGAUAACUCAGGAAAACAUCAAUACAAUCUAGUAUCUAUACUCCACAACAGAGGAUUGAGCAUCA
B19: chr16:94913438:94913439:+_ENSMUSG00000022897_ENSMUST00000122284|mus_hu|motif|central (ssRNA)
RNA: GGGAGUUCUACAGUCCGACGAUCAGGGAUGUCAUGGAGUGGUGACUGUGGCCAACCUCCAUAGAAUCUUGGGUAGAGGAGCGGUUCGUUGGAGAAUUGUAGACCCUUGGCCUGGUCCGGUUACCCAAGGCUUGUUGUCCAUGGCAACAGAGGAUUGAGCAUCA
B20: 71581855_71582081_2943_CDS_ENSMUSG00000031398_ENSMUST00000004326|mouse|control|control (ssRNA)
RNA: GGGAGUUCUACAGUCCGACGAUCACUCACACGGUCAAAUGUAGGGGUCACAAAGCUGUAGAGUUGCUGGGACUGUGUGCGGAAGUCAGCAGAACAAUCCCCUACACAGAGCUCAGCAGGCCCAGGUGGUGGGCUGGGCACCAGCAACAGAGGAUUGAGCAUCA
B21: chr2:181380236:181380237:+_ENSMUSG00000002455_ENSMUST00000002529|mus_mus|FALSE|FALSE (ssRNA)
RNA: GGGAGUUCUACAGUCCGACGAUCACCAUGAUUCUUCUCAAAGUAGGCAGCUCGUAACCACACACUUUUCUUGCUGGGGAAGACUUGUAGGGCAUAGGCAUAUAUGGCUCGUGCACACUCCAGGGCAUUGUGGGCCACACAACUCAACAGAGGAUUGAGCAUCA
B22: 110384628_110384748_820_3pUTR_ENSG00000138802_ENST00000265175|human|control|control (ssRNA)
RNA: GGGAGUUCUACAGUCCGACGAUCGAUGAGAUUGUCUUGAGUCGAUGGAAGGCCUGGAGAUGACCACGUUAGAGUACUGUAUCCUGAAAGACUUUGCUGCUGGUGGUGCUGUUGUGAUGGUAGAGGUGGAAGUGGCGAUGGAUGCAACAGAGGAUUGAGCAUCA

Some of the results follow.

This assay deals with T1, UNK ZnF1-3. Briefly: nsRBNS (natural sequence RNA bind-n-seq); RBNS binding buffer (assumed for nsRBNS): 25 mM Tris pH 7.5, 150 mM KCl, 3 mM MgCl2, 0.01% Triton X-100, 500 ug/ml BSA, 20 U/ml SUPERase-In, 4 C; UNK is unkempt and MSI1 is Musashi-1; names of the RNAs are library labels; protein concentration not given here; high values mean tight binding.
As for B1, the binding signal turned out to be 0.853 enrichment R.
On to B2, for which the binding signal came to 1.02 enrichment R.
With B3 the figure was 0.675 enrichment R; with B4, 0.656 enrichment R; with B5, 1.11 enrichment R.
Under B6 stands 0.905 enrichment R; under B7, 2.28 enrichment R; under B8, 1.78 enrichment R.
With B9 the figure was 0.631 enrichment R; with B10, 0.79 enrichment R; with B11, 1.52 enrichment R.
Consider B12, for which the binding signal was 0.894 enrichment R.
Under B13 stands 1.15 enrichment R.
With B14 the figure was 1.52 enrichment R; with B15, 0.761 enrichment R; with B16, 1.91 enrichment R.
B17 displayed a binding signal of 0.54 enrichment R.
With B18 the figure was 0.835 enrichment R; with B19, 0.58 enrichment R; with B20, 0.872 enrichment R.
With B21 the figure was 1.06 enrichment R.
B22 registered a binding signal of 1.59 enrichment R.
